Results published in PubChem BioAssay AID504374 (National Center for Advancing Translational Sciences (NCATS), 2011).
Out of some 1,500 compounds screened, about 100 (6.7%) were called active. Roughly 7% stayed inconclusive and do not appear here. Calls follow the shape of the dose curve; as a rule, active = well fitted inhibition curve with a large enough effect; inconclusive = small, poorly fitted or top-dose-only effect, or effect the other way; inactive = flat fitted curve, though single readings scatter. The list shows a part of the results.

What follows are molecules tested against Runt-related transcription factor 1 (Homo sapiens) + Core-binding factor subunit beta (Homo sapiens) (UniProt Q01196+Q13951) (assay: qHTS Assay for Compounds Blocking the Interaction Between CBF-beta and RUNX1 for the Treatment of Acute Myeloid Leukemia: Hit Validation). Conditions: AlphaScreen CBFb-His/RUNX1-biotin binding; series mostly up to 59.8 µM; activity, negative = inhibition: at the top concentration.
Sequence of UniProt Q01196 (Q01196 whole entry, looked up): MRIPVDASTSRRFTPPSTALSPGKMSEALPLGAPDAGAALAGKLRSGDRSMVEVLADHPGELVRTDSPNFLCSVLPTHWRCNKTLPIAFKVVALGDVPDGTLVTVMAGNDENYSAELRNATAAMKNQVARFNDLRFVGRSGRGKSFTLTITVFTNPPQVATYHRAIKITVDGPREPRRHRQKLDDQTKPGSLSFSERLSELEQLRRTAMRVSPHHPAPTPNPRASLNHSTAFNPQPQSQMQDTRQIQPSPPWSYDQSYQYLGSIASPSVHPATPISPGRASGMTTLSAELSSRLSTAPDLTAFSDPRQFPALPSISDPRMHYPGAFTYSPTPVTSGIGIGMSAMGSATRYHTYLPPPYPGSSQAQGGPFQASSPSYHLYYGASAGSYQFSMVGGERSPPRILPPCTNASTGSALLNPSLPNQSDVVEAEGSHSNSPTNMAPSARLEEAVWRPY
Sequence of UniProt Q01196 (Q13951 whole entry, looked up): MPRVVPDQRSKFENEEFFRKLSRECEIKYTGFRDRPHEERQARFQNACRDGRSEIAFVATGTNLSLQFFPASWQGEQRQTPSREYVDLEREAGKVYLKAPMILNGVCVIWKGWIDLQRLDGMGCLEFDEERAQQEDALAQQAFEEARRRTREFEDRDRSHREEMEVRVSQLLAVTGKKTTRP
Outline: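 AlphaScreen proximity assay: His-tagged CBF-beta and biotinylated RUNX1 (30 nM each) preincubated 20 min, then compound 15 min, then nickel and streptavidin beads 90 min, all at room temperature; signal read at […]em 440 nm.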
% is scaled to controls: 0 for no effect and ±100 for the full control effect; potency is read from the fitted curve at half-maximal effect.
Also: nearly all actives have a fitted effect of over 60% in size.

| SMILES | activity, negative = inhibition | Potency |
| --- | --- | --- |
| Cc1c(Cl)ccc2c(C(=O)O)cc(-c3ccccc3)nc12 | inactive: -3.6% | – |
| Cc1cc(C)[n+]2[nH]c(N)c(N=Nc3ccccc3)c2n1 | inactive: -7.09% | – |
| COc1ccc(/C=N/NC(=S)Nc2cc(C(F)(F)F)ccc2Cl)cc1 | inactive: 10.6% | – |
| O=C(O)CCC(=O)N1CCN(c2ncccn2)CC1 | inactive: -0.402% | – |
| CCCNc1cc(=S)nc(N)[nH]1 | inactive: -1.61% | – |
| OCc1ncc(-c2ccccc2)s1 | inactive: 0.332% | – |
| CC1c2ccsc2CCN1S(=O)(=O)c1cccs1 (stereo unspecified) | inactive: -8.48% | – |
| CC(=O)Nc1ccc(NS(=O)(=O)c2ccc(C)cc2)cc1[N+](=O)[O-] | inactive: -7.42% | – |
| NC1=NC(=Nc2ccc(S(N)(=O)=O)cc2)c2ccccc21 | inactive: -0.969% | – |
| CCCOc1ccc(C(=O)c2ccccc2C(=O)O)cc1OCCC | inactive: -3.16% | – |
| CCN1CCN(S(=O)(=O)c2cc(C(=O)O)ccc2Cl)CC1 | inactive: -3.71% | – |
| Oc1ccc(NC(=S)Nc2ccccc2)cc1 | inactive: -3.44% | – |
| COC(=O)[C@H](CC(C)C)NC(=O)N1CCCCC1C (stereo partly specified) | inactive: -2.71% | – |
| COc1ccc(-c2c(NC(=O)c3ccco3)n(-c3ccccc3)nc(C)c2=O)cc1 | inactive: 1.47% | – |
| NNC(=O)c1ccc(COc2ccc([N+](=O)[O-])cc2)o1 | inactive: -7.53% | – |
| CC(C)c1ccc(Nc2c([N+](=O)[O-])c(=O)n(C)c3ccccc23)cc1 | inactive: -15.4% | – |
| CC(=O)c1ccc(-n2ccnc2)cc1 | inactive: -2.62% | – |
| O=S(=O)(c1ccc(Cl)cc1)N1CCCN(c2ccc(C(F)(F)F)cn2)CC1 | inactive: -0.843% | – |
| Cc1cc(C)n2cnnc2n1 | inactive: -3.07% | – |
| C/C(=N\Nc1ccc(C#N)cc1[N+](=O)[O-])c1ccc(O)cc1 | inactive: -17.7% | – |
| COC(=O)c1ccc(/C=N/NC(=O)C(=O)NCC2CCCO2)cc1 (stereo unspecified) | inactive: 7.62% | – |
| Clc1ccccc1-c1nnc2n1CCCCC2 | inactive: -0.332% | – |
| FC(F)(F)c1cccc(-n2c(Cn3nnc4ccccc43)n[nH]c2=S)c1 | inactive: 7.14% | – |
| COc1ccc(/C=N/NC(=O)c2ccc(Br)cc2)cc1CN1CCOCC1 | inactive: 3.41% | – |
| COc1ccc(/C=N/NC(=O)Cn2ccnc2C)cc1OC | inactive: -9.74% | – |
| Cn1c(SCC(=O)NC(=O)Nc2ccccc2)nnc1-c1ccncc1 | inactive: -3.55% | – |

| SMILES | activity, negative = inhibition | Potency |
| --- | --- | --- |
| Cc1nn(C)c(Sc2ccccn2)c1[N+](=O)[O-] | inactive: 3.06% | – |
| O=c1ccn(CCCBr)c(=O)[nH]1 | inactive: 3.17% | – |
| CN(C)NC(=S)NC1CCS(=O)(=O)C1 (stereo unspecified) | inactive: 1.34% | – |
| CCCc1ccc(OCc2ccccc2)c2c(=O)cc(C(=O)OCC)oc12 | inactive: -0.456% | – |
| CCCN(c1ccc(C)cc1)c1nc(=O)c2cccnc2s1 | inactive: -0.704% | – |
| Cc1cc(NC(=O)CSc2nc3ccccc3[nH]2)n(-c2ccccc2)n1 | inactive: -1.36% | – |
| Cc1oc(S(=O)(=O)N2CCCCC2)cc1NC(=O)Nc1ccc(F)cc1 | inactive: -4.08% | – |
| Cc1onc(-c2ccccc2)c1C(=O)NNC(=S)NC(=O)c1ccc2c(c1)OCO2 | inactive: -5.8% | – |
| CC(C)(C)C(=O)Nc1nc(NC(=O)C(C)(C)C)nc(-c2ccccc2Cl)n1 | inactive: 7.81% | – |
| O=C(O)CCC1(c2ccccc2)NC(=O)NC1=O (stereo unspecified) | inactive: -3.65% | – |
| COC(=O)CC1C(=O)NCCN1C(=S)Nc1ccc(F)cc1 (stereo unspecified) | inactive: 0.286% | – |
| CC(C)CCNc1nc(N)c([N+](=O)[O-])c(NCCO)n1 | inactive: -8.74% | – |
| CCCC1C2C(=O)N(c3cccc(C)c3)C(=O)C2ON1c1ccccc1 (stereo unspecified) | inactive: -0.96% | – |
| COc1ccccc1N1C(=O)CC(Sc2ccccc2N)C1=O (stereo unspecified) | inactive: 0.805% | – |
| Cc1cccc(-c2n[nH]c(=S)n2/N=C/c2ccco2)c1 | inactive: -6.05% | – |
| COc1ccccc1NC(=S)NCC1CCC(CNC(=S)Nc2ccccc2OC)CC1 (stereo unspecified) | inactive: -2.72% | – |
| Cc1cnc(NS(=O)(=O)c2ccccc2)c(Br)c1 | inactive: -4.09% | – |
| Cc1cc(O)c(C(C)C)cc1N=Cc1ccccc1O | inactive: -0.406% | – |
| Cc1ccccc1C1NC(c2ccccc2C)C([N+](=O)[O-])C(C)(C)C1[N+](=O)[O-] (stereo unspecified) | inactive: -6.05% | – |
| COC(=O)c1sccc1NC(=S)Nc1ccc(C)cc1 | inactive: 5.69% | – |
| CC(C)OP(=O)(c1ccc(N(C)C)cc1)C(O)c1cccnc1 (stereo unspecified) | inactive: -12.8% | – |
| CSCCC(NS(=O)(=O)/C=C/c1ccccc1)C(=O)NCCc1ccc(S(N)(=O)=O)cc1 (stereo unspecified) | inactive: -23.3% | – |
| Cn1c(=O)c([N+](=O)[O-])c(NCC2CCCO2)c2ccccc21 (stereo unspecified) | inactive: -0.834% | – |
| CCCN(CCC)c1ccc(/C=C/c2ccc3cc(OCC)ccc3n2)cc1 | inactive: 3.7% | – |
| N#Cc1c(Cl)cccc1N1CCC(C(N)=O)CC1 | inactive: -17.5% | – |
| CC1Cc2cc(/C=C3/SC(=S)N(C)C3=O)ccc2O1 (stereo unspecified) | inactive: -8.24% | – |

| SMILES | activity, negative = inhibition | Potency |
| --- | --- | --- |
| Cc1sc(NC(=O)CN2CCOCC2)c(C#N)c1C | inactive: -16% | – |
| CC(C)CC(=O)NC(=S)Nc1ccc(CN2CCOCC2)cc1 | inactive: 5.97% | – |
| Cc1ccc(N2CC(c3nc4ccccc4n3C)CC2=O)cc1 (stereo unspecified) | inactive: 0.961% | – |
| COc1ccc(Oc2ncccc2[N+](=O)[O-])cc1 | inactive: -4.02% | – |
| COC(=O)c1ccc(OC)c(OC)c1Cl | inactive: -1.98% | – |
| C=CCn1c(-c2sc3nc(C)cc(C)c3c2N)n[nH]c1=S | inactive: -14.4% | – |
| CCOC(=O)c1cnc2c(F)ccc(F)c2c1Sc1ccccc1 | inactive: -4.51% | – |
| c1ccc(CSc2nc3ncncc3[nH]2)cc1 | inactive: -2.45% | – |
| O=C(/C=C/c1cn(CC(O)CN2CCOCC2)c2ccccc12)c1cccs1 (stereo unspecified) | inactive: 2.26% | – |
| Cc1c([N+](=O)[O-])c(C/C=N/O)nn1C | inactive: -8.45% | – |
| COc1cc(/C=N\NC(=O)CNC(=O)C(c2ccccc2)c2ccccc2)ccc1O | inactive: 1.14% | – |
| N#CC(C#N)=Cc1ccc(OC(=O)c2ccccn2)cc1 | – | active: 6.12 µM |
| CCOC(=O)COc1ccc2c(=O)cc(-c3ccccc3)oc2c1 | inactive: -2.66% | – |
| O=C(CCl)NC1(C(F)(F)F)C(=O)Nc2c1c(=O)[nH]c(=O)n2-c1ccccc1 (stereo unspecified) | inactive: -1.75% | – |
| O=C(NCCc1ccc(Cl)cc1)Nc1ccc(Cl)cc1 | inactive: 1.15% | – |
| CNC(=O)n1cc(C)c(-c2cccs2)n1 | inactive: -1.1% | – |
| COC(=O)c1ccc(S(=O)(=O)NCc2ccco2)n1C | inactive: -5.37% | – |
| CC1(C)Cc2c(c(=S)nc(-c3ccccc3)n2Cc2cccnc2)CO1 | inactive: -3.11% | – |
| Cc1ccc(C[n+]2cc(-c3ccc(Cl)cc3)n3c2CCC3)cc1 | inactive: -2.88% | – |
| CCOC(=O)NC1=NCC(C)S1 (stereo unspecified) | inactive: -9.33% | – |
| COc1cc(-c2noc(C)n2)cc(OC)c1OC | inactive: -0.677% | – |
| COc1ccc(-c2nc(-c3cccnc3)no2)cc1OC | inactive: -4.88% | – |
| O=C(O)c1ccc(S(=O)(=O)Nc2cccc(CP(=O)(c3ccccc3)c3ccccc3)c2)cc1 | inactive: -1.73% | – |
| COC(=O)C1=C(C)Nc2c(c(=O)n(C)c(=O)n2C)C1c1cccc(O)c1 (stereo unspecified) | inactive: -2.32% | – |
